Test results taken from PMC4336329 (PLoS ONE, 2015).
The whole screen tested about 310,000 compounds, of which about 14,000 (4.5%) showed an effect of 50% or more. Effects have a minus sign here. This is one part of the list.

target: human ether-à-go-go-related gene (hERG) potassium channel (human, UniProt Q12809); assay: primary screen, population patch clamp on CHO cells stably expressing hERG
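Further: peak tail current of the secondary pulse compared with the same well before compound.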

human ether-à-go-go-related gene (hERG) potassium channel, sequence (Q12809 whole entry, looked up): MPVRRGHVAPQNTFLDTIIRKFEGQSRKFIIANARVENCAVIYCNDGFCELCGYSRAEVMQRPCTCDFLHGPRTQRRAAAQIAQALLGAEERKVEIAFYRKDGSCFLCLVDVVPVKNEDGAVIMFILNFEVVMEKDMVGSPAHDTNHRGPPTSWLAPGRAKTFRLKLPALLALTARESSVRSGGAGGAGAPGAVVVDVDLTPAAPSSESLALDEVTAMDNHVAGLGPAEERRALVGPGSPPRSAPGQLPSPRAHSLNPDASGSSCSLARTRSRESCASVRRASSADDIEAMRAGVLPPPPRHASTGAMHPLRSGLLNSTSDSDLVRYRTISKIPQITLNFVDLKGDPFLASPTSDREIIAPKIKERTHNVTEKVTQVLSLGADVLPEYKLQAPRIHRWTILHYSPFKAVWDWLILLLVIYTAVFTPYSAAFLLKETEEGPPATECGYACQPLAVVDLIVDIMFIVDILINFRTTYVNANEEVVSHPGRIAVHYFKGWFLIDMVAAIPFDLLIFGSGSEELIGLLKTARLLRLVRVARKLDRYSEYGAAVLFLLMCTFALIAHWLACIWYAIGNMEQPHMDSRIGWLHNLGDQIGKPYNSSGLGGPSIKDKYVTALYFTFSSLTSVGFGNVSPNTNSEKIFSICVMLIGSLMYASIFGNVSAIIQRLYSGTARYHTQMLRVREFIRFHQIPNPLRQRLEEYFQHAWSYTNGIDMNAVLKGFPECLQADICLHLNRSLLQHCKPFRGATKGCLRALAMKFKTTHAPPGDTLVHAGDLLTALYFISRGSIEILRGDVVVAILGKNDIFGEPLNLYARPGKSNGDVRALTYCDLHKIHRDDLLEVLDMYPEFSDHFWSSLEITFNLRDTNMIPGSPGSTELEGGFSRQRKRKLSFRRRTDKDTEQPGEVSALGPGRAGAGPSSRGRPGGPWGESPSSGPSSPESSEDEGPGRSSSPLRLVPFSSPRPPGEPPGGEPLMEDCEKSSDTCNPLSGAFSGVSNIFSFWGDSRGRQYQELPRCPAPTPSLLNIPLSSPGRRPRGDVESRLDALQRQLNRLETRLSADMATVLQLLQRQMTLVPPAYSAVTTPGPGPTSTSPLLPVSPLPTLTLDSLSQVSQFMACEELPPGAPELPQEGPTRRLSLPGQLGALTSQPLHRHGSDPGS

Row | Structure (SMILES) | hERG current change (%, negative = inhibition) at 10uM
1 | CN(C)CCNC(=O)c1ccc(-c2nn(C)c(=O)c3ccccc23)cc1 | -3.02%
2 | OCC[C@@H]1C[C@H](O)[C@@H](O)[C@]2(CCCc3ccccc3O2)O1 | 17.1%
3 | CC(C)(C)c1ccc(OCCCn2ccnc2)cc1 | -11.6%
4 | N#CCCn1cc(C(=O)N2CCCCC2)c(-c2cccc([N+](=O)[O-])c2)n1 | 1.87%
5 | O=C(O)C1CCN(c2ccc(S(=O)(=O)N3CCC(C(=O)O)CC3)cc2[N+](=O)[O-])CC1 | 20.5%
6 | Cc1cn(S(=O)(=O)c2ccccc2[N+](=O)[O-])cn1 | 23.4%
7 | COc1ccc(-n2nc(C(=O)NCC(=O)NC3CCCCCC3)c3ccccc3c2=O)c(OC)c1 | 11.1%
8 | CCOCc1nnc(NC(=O)c2cccs2)s1 | -1.25%
9 | CC(=O)Oc1cccc(-c2nc3ccccc3c(=O)o2)c1 | 9.58%
10 | CSc1ccccc1NC(=O)Nc1cccc(F)c1 | 14.3%
11 | O=C(CSc1ncc(-c2ccccc2)[nH]1)Nc1ccccc1 | -14.6%
12 | CC(Sc1nc2ccccc2n1C)C(=O)NC(c1ccccc1)c1ccccc1 (stereo not drawn) | -7.7%
13 | O=C(/C=C/c1cccs1)N1CCN(c2ccc(F)cc2)CC1 | -11.1%
14 | CCOC(=O)c1oc2cc(O)cc(C)c2c(=O)c1-c1cscn1 | -8.53%
15 | CC(C)(CO)NC(=S)NCc1ccco1 | 6.39%
16 | CC(=O)Nc1ccccc1C(=O)C(=O)Nc1cccc(C(=O)N2CC(C)CC(C)C2)c1 (stereo not drawn) | -24%
17 | COc1cc(CNc2ccc(C(=O)O)cc2)cc(Br)c1OCC(=O)NC(C)(C)C | 6.14%
18 | CCOC(=O)C1C(=O)NC(SC)=C(C#N)C1c1ccccc1F (stereo not drawn) | -5.64%
19 | Cc1ccc(S(=O)(=O)NCC(=O)OC(C)C(=O)NC(=O)NC2CCCCC2)cc1C (stereo not drawn) | -3.12%

Row | Structure (SMILES) | hERG current change (%, negative = inhibition) at 10uM
20 | O=C(NNC(=O)c1cccs1)c1ccc([N+](=O)[O-])cc1 | 2.77%
21 | O=C(COC(=O)c1ccc(S(=O)(=O)N2CCCC2)cc1)Nc1cccc(Br)c1 | -31.9%
22 | Cl.N=C(N)c1ccccc1.O | 19.9%
23 | O=C(CSc1nnc(-c2ccco2)o1)Nc1c(F)cccc1F | -1.95%
24 | CC1CCCCN1S(=O)(=O)c1cn(C)c(=O)n(C)c1=O (stereo not drawn) | 0.369%
25 | Cc1cc(C)c2[nH]c(=O)c(CN(Cc3ccccc3)C(=S)NCCCN(C)C)cc2c1 | -52.8%
26 | N#Cc1c(N)oc(-c2cccs2)c1-c1cccs1 | 2.03%
27 | CCOC(=O)C1C(c2ccccc2Cl)NC(=O)N(C)C1(O)C(F)(F)F (stereo not drawn) | -2.6%
28 | CN(Cc1cnn(C)c1)Cc1nc(COc2ccccc2)no1 | 18.3%
29 | O=C(Nc1cccc(S(=O)(=O)Nc2ccccc2Cl)c1)c1ccc(N2CCCC2)c([N+](=O)[O-])c1 | 4.32%
30 | O=C1CC(N2CCN(C3CC(=O)N(CCc4ccccc4)C3=O)CC2)C(=O)N1CCc1ccccc1 (stereo not drawn) | -6.78%
31 | CCCCc1cc(=O)oc2cc(OCC(=O)N(CC)CC)ccc12 | -41.2%
32 | COc1cccc(/C=C/C(=O)OCC(=O)NC(=O)NC2CCCC2)c1 | 1.72%
33 | COc1ccc(NC(=O)CC2C(=O)N(C)C(=S)N2CCc2ccccc2)cc1 (stereo not drawn) | 7.83%
34 | Cc1cccn2cc(CNC(=O)CC3CCCC3)nc12 | -0.0505%
35 | O=C(N/N=C/c1cc([N+](=O)[O-])ccc1O)C(O)(c1ccccc1)c1ccccc1 | 4.13%
36 | N#Cc1cc(C#N)c(SCC(=O)NCC2CCCO2)nc1N (stereo not drawn) | 10.8%
37 | COc1cccc(CN(C)C(=O)c2cccc(NC(=O)CC3SC(N4CCCCC4)=NC3=O)c2)c1OC (stereo not drawn) | -0.0991%
38 | CCN(CC)CCNc1nc2c(c(=O)[nH]c(=O)n2C)n1CC(O)COc1ccc(Cl)cc1Cl (stereo not drawn) | -70.2%

Row | Structure (SMILES) | hERG current change (%, negative = inhibition) at 10uM
39 | O=C(NNC(=S)Nc1cccc(C(F)(F)F)c1)c1cccc(Cl)c1 | 21.6%
40 | O=C(O)[C@@H]1CCCN1c1ncnc2sc3c(c12)CCC3 | -1.12%
41 | CCC1CCCCN1CCCNC(=O)c1cc2c(=O)[nH]c3ccccc3c2n1C (stereo not drawn) | -4.57%
42 | COc1ccc(CC(=O)NN2C(=O)c3ccccc3C2=O)cc1 | -1.6%
43 | COC(=O)COc1ccc(S(=O)(=O)N2CCCCCC2)cc1 | -5.57%
44 | Cn1nccc1NC(=O)Nc1cccc(Br)c1 | 2.93%
45 | CC(C)/C(=N\NS(=O)(=O)c1ccc(Br)cc1)c1cccs1 | 1.84%
46 | CC1=C(C(=O)OCCNC(=O)c2cccnc2)C(c2cccc([N+](=O)[O-])c2)C(C(=O)OCCN(C)C)=C(C)N1.CCO (stereo not drawn) | -1.75%
47 | O=C(Nc1ccccc1)C1CCOC1=O (stereo not drawn) | 16.1%
48 | OCCCCNc1cccc2ccccc12 | 7.65%
49 | CC(C)(C)CC(C)(C)NC(=O)Nc1cccc([N+](=O)[O-])c1 | 11.8%
50 | CCOC(=O)CN1C(=O)S/C(=C/C=C/c2ccc(N(C)C)cc2)C1=O | 6.59%
51 | O=C(Cc1ccccc1)Nc1nnc(SCC(=O)NC2CCCC2)s1 | 11.2%
52 | Cc1cc(/C=C2\SC(=S)NC2=O)c(C)[nH]1 | -1.33%
53 | Cn1c(CN2CCCCC2)nc2cc(NC(=O)c3ccc(F)cc3)ccc21 | -54.2%
54 | CCn1c(CN2CCN(CCO)CC2)nc2ccccc21 | 5.04%
55 | O=C(CN(CC1CCCO1)C(=O)CCC(=O)Nc1nccs1)NCc1ccc2c(c1)OCO2 (stereo not drawn) | 11.9%
56 | CC(Oc1ccc2ccc(=O)oc2c1)C(=O)NC1CCN(Cc2ccccc2)CC1 (stereo not drawn) | -75%
57 | Cc1c(C(N)=O)sc2ncn(CC(=O)N(C)C3CCCCC3)c(=O)c12 | 5.49%
